Measurements: PubChem BioAssay AID504832 (National Center for Advancing Translational Sciences (NCATS), 2011)
About 18,000 (5.8%) of roughly 310,000 compounds were called active. The inconclusive results got no clear call from the source; some entries with a clear call stand among them for comparison. Calls come from the whole dose curve; as a rule, active = well fitted inhibition curve with a large enough effect; inconclusive = small, poorly fitted or top-dose-only effect, or another doubt; inactive = no such curve, though single readings can be large or run the other way. Potencies of inconclusive entries are left out as doubtful fits.

Test: Primary qHTS for delayed death inhibitors of the malarial parasite plastid, 48 hour incubation
Details: P. falciparum luciferase growth in erythrocytes; series mostly up to 28.7 µM; activity change, negative = inhibition: at the top concentration
Method in brief: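 Compounds are pin-transferred into medium, infected erythrocytes (2% hematocrit, 0.1% parasitemia final) are added, and plates sit one parasite generation at 37 C in 5% CO2. Detection reagent is then added and luminescence measured.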
% is set by controls: 0 for no effect and ±100 for the full control effect; potency is the fitted concentration of half-maximal effect; tags give direction and shape of the fitted curve.

SMILES | Potency | activity change, negative = inhibition
CN(C)c1ccc(CNC2C3CC4CC(C3)CC2C4)cc1 (stereo not drawn) | inconclusive [inhibitor, single point] | –
O=C(c1ccccc1)c1ccccc1NC(=O)C1CCCN1Cc1ccccc1 (stereo not drawn) | inconclusive [inhibitor, single point] | –
CCOC(=O)C1(Cc2ccc(OC)cc2)CCN(C(=O)c2cncs2)CC1 | – | inactive: -7.11%
CCNc1nnc(CCn2nc(C)c(Br)c2C)s1 | – | inactive: 42.3%
CC1CCN(C(=S)c2cn(Cc3cccc(F)c3)c3ccccc23)CC1 | inconclusive [inhibitor, partial curve] | –
CCN(CC)S(=O)(=O)c1ccc2c(c1)nc(SC(C)C(=O)NCC1CCCO1)n2CC (stereo not drawn) | inconclusive [inhibitor, partial curve] | –
CCC1CCc2sc(C(=O)NC3CCN(Cc4ccccc4)CC3)cc2C1 (stereo not drawn) | inconclusive [inhibitor, partial curve, poor fit] | –
CCOc1ncccc1C(=O)OCC(=O)Nc1ccc(-c2nc3ccc(C)cc3s2)cc1 | – | inactive: 227%
COc1ccc(CN(C)C(=O)C2CCN(S(=O)(=O)c3cccs3)CC2)cc1F | inconclusive [inhibitor, single point] | –
COc1ccc(NC(=O)CSc2nc3ccccc3c(=O)n2CCNC(C)=O)cc1 | inconclusive [inhibitor, single point] | –
CNC(=S)N(Cc1ccco1)Cc1cc2cc(OC)c(OC)cc2[nH]c1=O | inconclusive [inhibitor, partial curve, poor fit] | –
O=C(CCCSc1nc(-c2ccco2)cc(C(F)(F)F)n1)NCc1cccs1 | inconclusive [inhibitor, single point] | –
O=C(CSc1nc(-c2ccccc2)cc(=O)[nH]1)Nc1ccc(F)c(F)c1 | – | inactive: 1.09%
COc1ccc(C(C(=O)NC2CCCCC2)N(C(=O)Cc2c[nH]c3ccccc23)c2ccccc2)cc1OC (stereo not drawn) | active: 13.1 µM | –
COc1ccc(C(C(=O)NC(C)(C)C)N(C(=O)CCC(=O)Nc2cc(C)on2)c2cccc(C)c2C)cc1 (stereo not drawn) | inconclusive [inhibitor, partial curve] | –
CC1=CC(=C(C#N)C#N)C=C(C)N1Cc1ccc(Cl)cc1 | active: 2.08 µM | –
CC1CCCC(C)N1C(=O)CN1C(=O)C(C)(C)Oc2ccc(C(=O)NC3CCCCC3)cc21 (stereo not drawn) | inconclusive [inhibitor, single point] | –
O=S(=O)(c1ccccc1)c1cnc(-c2cccnc2)nc1-c1ccc(Cl)cc1Cl | inconclusive [inhibitor, single point] | –
S=C(NCCSCc1ccc(Cl)cc1Cl)Nc1ccccc1 | inconclusive [inhibitor, partial curve, poor fit] | –
Cc1ccc(-c2nnn(CC(=O)N(Cc3cccs3)C(C(=O)NC3CCCC3)c3ccco3)n2)o1 (stereo not drawn) | inconclusive [inhibitor, single point] | –
COc1cc(NC(=O)[C@@H](NC(=O)c2ccco2)C(C)C)c(OC)cc1NC(=O)c1ccccc1 | inconclusive [inhibitor, single point] | –
Cc1c(C(=O)N2CCN(c3ccccc3)CC2)sc2ncnc(N3CCN(c4ccccn4)CC3)c12 | inconclusive [inhibitor, single point] | –
O=C(COC(=O)c1ccc2ccccc2n1)c1ccccc1 | – | inactive: -8.69%

SMILES | Potency | activity change, negative = inhibition
CCCCC(CC)C(=O)Nc1cc(C(=O)NCCC)ccc1N1CCC2(CC1)CC(c1ccccc1)=NO2 (stereo not drawn) | – | inactive: -37.6%
COc1cccc(CNCc2ccco2)c1O | – | inactive: 0%
COc1cccc(/C=N/NC(=O)Cn2cnc3c2c(=O)n(C)c(=O)n3C)c1OC | – | inactive: 15.9%
Cc1cc(O)c(-c2n[nH]c3c2C(c2cccc(O)c2)N(Cc2cccnc2)C3=O)cc1Cl (stereo not drawn) | – | inactive: -18.9%
COc1ccc2c(c1OC)C(=O)N(c1ccc(OCc3ccccc3)cc1)C2=O | – | inactive: 14.3% [at 0.00184 µM]
COc1cc(OC)cc(C(C(=O)NC2CCCCC2)N(C(=O)c2ccno2)c2ccccc2)c1 (stereo not drawn) | inconclusive [inhibitor, partial curve, poor fit] | –
CCN(CC)S(=O)(=O)c1ccc(N2CCOCC2)c(NC(=O)CN2C(=O)NC(C)(c3ccccc3)C2=O)c1 (stereo not drawn) | inconclusive [inhibitor, partial curve] | –
CCOC(=O)c1sc(-c2ccc(F)cc2)cc1N | – | inactive: 142%
CCOc1ccccc1/C=N/NC(=O)c1nnn(-c2nonc2N)c1CN1CCCC1 | – | inactive: -0.95%
COc1ccc(N2CCN(C(=O)CN3C(=O)NC(C)(c4ccc5ccccc5c4)C3=O)CC2)cc1 (stereo not drawn) | inconclusive [inhibitor, partial curve, poor fit] | –
O=C(Nc1nc(-c2ccc(S(=O)(=O)N3CCCCCC3)cc2)cs1)c1cccs1 | inconclusive [inhibitor, single point] | –
COC(=O)c1ccc(NC(=S)NCCc2ccccc2C)cc1 | – | inactive: 3.2%
CCOC(=O)/C(C#N)=C/Nc1cc(C(=O)OCC)cc2c(OC)c(OC)ccc12 | inconclusive [inhibitor, single point] | –
CC1CCN(C(=O)c2ccc(NC(=O)CC3SC(N4CCCC4)=NC3=O)cc2)CC1 (stereo not drawn) | inconclusive [inhibitor, single point] | –
COc1ccccc1-c1nnc(SC(C)C(=O)Nc2ccc(C(N)=O)cc2)o1 (stereo not drawn) | – | inactive: 6.36%
COc1ccc(C)cc1S(=O)(=O)N1c2ccccc2CC1C (stereo not drawn) | inconclusive [inhibitor, partial curve] | –
NS(=O)(=O)c1ccc(CCNC(=O)Cc2ccc(S(=O)(=O)N3CCOCC3)s2)cc1 | inconclusive [inhibitor, partial curve] | –
Fc1ccccc1NC(=S)N1CCCCC1 | – | inactive: 22.2%
O=C(NCc1ccccc1)C(c1ccccc1)N(C(=O)c1csnn1)c1ccccc1 (stereo not drawn) | – | inactive: -2.55%
Cc1cccn2c(=O)c(C(=O)NC3CC(C)CC(C)(C)C3)c(O)nc12 (stereo not drawn) | active: 3.7 µM | –
CCOc1cc(N2CCOCC2)c(OCC)cc1NC(=O)COC(=O)c1ccccc1OC(F)F | – | inactive: -24.1%
CCOc1ccc(NC(=O)CN(C)C(=O)c2ccccc2OCc2c(C)noc2C)cc1OCC | – | inactive: -17.5%
O=C(O)[C@H](Cc1ccccc1)NC(=O)N1CCN(c2ccc(F)cc2)CC1 | – | inactive: 15.6%

SMILES | Potency | activity change, negative = inhibition
CCCCn1c(N)c(N(CC(C)C)C(=O)c2ccc(N(C)S(=O)(=O)c3ccc(C)cc3)cc2)c(=O)[nH]c1=O | inconclusive [inhibitor, single point] | –
O=C(CCc1nc2sc3c(c2c(=O)[nH]1)CCCC3)NCCc1ccc(F)cc1 | inconclusive [inhibitor, single point] | –
CC12CCC(c3nnc(SCC(=O)Nc4cccc5ccccc45)nc31)C2(C)C (stereo not drawn) | – | inactive: -7.42%
COc1ccc(NC(=O)c2ccc3c(c2)CCN3S(=O)(=O)c2ccccc2)cc1 | inconclusive [inhibitor, partial curve] | –
C=CCN=C(NC#N)SC | active: 0.233 µM | –
COc1ccc(Nc2nc(OC)nc(OC)n2)cc1 | inconclusive [inhibitor, single point] | –
Cc1ccc(CNC(=O)c2ccc(Cn3cc(-c4ccc(C)cc4)nc3-c3ccncc3)cc2)cc1 | inconclusive [inhibitor, full curve, poor fit] | –
COc1ccc(C(=O)Nc2ccc(-c3cn4ccsc4n3)cc2)cc1S(=O)(=O)N1CCOCC1 | inconclusive [inhibitor, partial curve] | –
CCn1cc(/C=C(\NC(=O)c2cc(OC)c(OC)c(OC)c2)C(=O)N2CCN(C)CC2)c2ccccc21 | inconclusive [inhibitor, partial curve, poor fit] | –
O=C(/C=C/c1ccc2ccccc2n1)N1CCN(S(=O)(=O)c2ccc(F)cc2)CC1 | inconclusive [inhibitor, partial curve] | –
CCOC(=O)c1c(CN(CC)CC)n(C)c2cc(Br)c(O)cc12 | inconclusive [inhibitor, full curve] | –
CC1CC(C)CN(C(=O)C2CCCN(S(=O)(=O)c3cnc[nH]3)C2)C1 (stereo not drawn) | inconclusive [inhibitor, full curve] | –
O=C(CCNC(=O)c1ccccc1Cl)Nc1ccc(Cl)c(C(F)(F)F)c1 | – | inactive: 44%
COc1ccccc1S(=O)(=O)N1CCC(C(=O)O)(c2ccccc2)CC1 | inconclusive [inhibitor, full curve, poor fit] | –
COCCNC(=O)C(c1ccc(C)o1)N(C(=O)c1snc(C(N)=O)c1N)c1cccc(C)c1 (stereo not drawn) | inconclusive [inhibitor, single point] | –
O=c1cc(O)c2sc3nc(-c4ccccc4)cc(C(F)(F)F)c3c2[nH]1 | inconclusive [inhibitor, full curve, poor fit] | –
COc1ccc(C(=O)CSc2nnc3ccc(-c4ccccn4)nn23)cc1 | – | inactive: 2.99%
O=C(CSc1nnc(-c2ccccc2)c(-c2ccccc2)n1)NCc1ccco1 | active: 10.4 µM | –
CCOc1cc(N2CCOCC2)c(OCC)cc1NC(=O)CN1CCCC(C)C1 (stereo not drawn) | inconclusive [inhibitor, single point] | –
O=C(CNc1cccc2ccccc12)N/N=C/c1ccccn1 | inconclusive [inhibitor, single point] | –
CS(=O)(=O)Nc1cc2c3c(c1)CCC(=O)N3CCC2 | – | inactive: 1.37%
O=C(NCc1ccco1)Nc1ccc(OC(F)(F)F)cc1 | inconclusive [inhibitor, single point] | –
